Source: US20210363269A1 (ALX ONCOLOGY, published 2021)
Residue numbers refer to the chain shown, from its start.

How the values were obtained:
[1] = target: T1, human SIRP-α v1 D1 domain (human, UniProt P78324 31-149); assay: SPR, captured scFv-Fc, 100 nM analyte
T1 construct: also called human v1; human α v1
Experimental: (§1) Binding of the antibody clones to various SIRP proteins was determined using surface plasmon resonance (SPR) detection on a ProteOn XPR36 instrument (Bio-Rad, Hercules, Calif.) using phosphate buffered saline (PBS, pH 7.4) supplemented with 0.01% Tween-20 (PBST) as running buffer. The pre-filtered media containing the secreted antibodies was used directly for the assay. First, anti-Human IgG Fc (BR-1008-39, GE Healthcare) was amine-coupled onto a GLC sensor chip to generate the capture surfaces for the antibodies. About 4000 RU per flow cell of immobilized anti-human IgG Fc is achieved. Each clone is screened using the same method as follows.
(§2) (1) ‥5-10 uL of pre-filtered media in 10 mM sodium acetate buffer (pH4.5) was injected for 2 mins at 30 ul/min;
(§3) The koff rates of binding of each clone to each SIRP analyte were determined using SPR (Table C). The SPR screening conditions have been described herein, and the Koff values were determined using Langmuir kinetic fittings. The CD47 blocking properties (block, non-block, kick-off) are described in the last column of the Table C. Each antibody is identified according to its corresponding SEQ ID NO. SIRP analyte sequences are as follows: CV1-3, SEQ ID NO:18; v1, SEQ ID NO:5; v2, SEQ ID NO:6; cyno1, SEQ ID NO:11; cyno2, SEQ ID NO:12; m129, SEQ ID NO:7; NOD, SEQ ID NO: 8; BL6, SEQ ID NO:9; sirpb1, SEQ ID NO:13; sirpg, SEQ ID NO:15.

human SIRPγ isoform 1 [2] = target: T2, human SIRPγ isoform 1 (human, UniProt Q9P1W8 29-147); assay: SPR, captured scFv-Fc, 100 nM analyte
Sequence of human SIRPγ isoform 1 (Q9P1W8 29-147 limits assumed): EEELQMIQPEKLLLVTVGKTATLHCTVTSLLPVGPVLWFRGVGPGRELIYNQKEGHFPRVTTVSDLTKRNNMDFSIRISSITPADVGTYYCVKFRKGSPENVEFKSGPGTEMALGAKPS
T2 construct: also called sirpg; sirp-g
Experimental: as §1, §2, §3

[3] = target: T3, high affinity SIRP-α D1 variant CV1-3 (human); assay: SPR, captured scFv-Fc, 100 nM analyte
T3 chain: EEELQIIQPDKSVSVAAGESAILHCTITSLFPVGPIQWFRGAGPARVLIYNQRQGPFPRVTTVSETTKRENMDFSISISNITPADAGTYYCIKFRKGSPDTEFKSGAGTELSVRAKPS
Experimental: as §1, §2, §3

[4] = target: T4, human SIRP-α v2 D1 domain (human); assay: SPR, captured scFv-Fc, 100 nM analyte
T4 construct: also called human v2; human α v2
Experimental: as §1, §2, §3

[5] = target: T5, cynomolgus SIRP-α D1 domain (SEQ ID NO:11) (cynomolgus, UniProt Q5TFQ8 30-148 (human entry), limits assumed); assay: SPR, captured scFv-Fc, 100 nM analyte
T5 construct: also called cyno1
T5 chain: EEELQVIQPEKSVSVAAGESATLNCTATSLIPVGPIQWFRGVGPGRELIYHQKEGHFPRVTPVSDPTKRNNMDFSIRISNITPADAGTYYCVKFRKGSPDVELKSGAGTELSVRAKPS
Experimental: as §1, §2, §3

[6] = target: T6, cynomolgus SIRP-α D1 domain (SEQ ID NO:12) (cynomolgus, UniProt Q5TFQ8 30-148 (human entry), limits assumed); assay: SPR, captured scFv-Fc, 100 nM analyte
T6 construct: also called cyno2; Cyno2
T6 chain: T5 chain with E19D, A27V, T28S, V42A, H51N, Q52L, P62A
Experimental: as §1, §2, §3

[7] = target: T7, mouse 129 SIRP-α D1 domain (mouse (129 strain), UniProt P97797 32-150); assay: SPR, captured scFv-Fc, 100 nM analyte
T7 construct: also called m129
T7 chain: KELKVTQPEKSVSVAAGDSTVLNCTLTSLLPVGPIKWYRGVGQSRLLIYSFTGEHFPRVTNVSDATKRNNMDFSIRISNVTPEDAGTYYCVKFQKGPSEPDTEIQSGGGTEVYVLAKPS
Experimental: as §1, §2, §3

[8] = target: T8, NOD mouse SIRP-α D1 domain (mouse (NOD strain)); assay: SPR, captured scFv-Fc, 100 nM analyte
T8 chain: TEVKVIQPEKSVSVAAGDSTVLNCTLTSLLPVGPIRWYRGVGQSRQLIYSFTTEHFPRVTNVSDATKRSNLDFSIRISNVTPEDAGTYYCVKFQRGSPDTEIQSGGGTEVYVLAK
Experimental: as §1, §2, §3

[9] = target: T9, C57BL/6 mouse SIRP-α D1 domain (mouse (C57BL/6 strain), UniProt P97797 32-148); assay: SPR, captured scFv-Fc, 100 nM analyte
T9 sequence: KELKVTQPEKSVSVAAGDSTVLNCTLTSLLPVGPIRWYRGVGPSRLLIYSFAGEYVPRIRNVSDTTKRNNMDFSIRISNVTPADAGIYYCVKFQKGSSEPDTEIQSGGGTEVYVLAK
Experimental: as §1, §2, §3

human SIRPβ isoform 1 [10] = target: T10, human SIRPβ isoform 1 (human, UniProt O00241 30-148); assay: SPR, captured scFv-Fc, 100 nM analyte
Sequence of human SIRPβ isoform 1 (O00241 30-148 limits assumed): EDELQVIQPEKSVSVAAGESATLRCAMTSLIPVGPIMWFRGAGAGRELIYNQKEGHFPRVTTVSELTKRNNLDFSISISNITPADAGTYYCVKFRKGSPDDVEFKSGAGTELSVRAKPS
T10 construct: also called sirpb1; Sirpb1
Experimental: as §1, §2, §3

[11] = target: T4, human SIRP-α v2 D1 domain; assay: SPR, captured scFv-Fc
Method in brief: (§4)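 Pre-filtered culture media supplied the scFv-Fc antibody clones, which were captured by anti-human IgG Fc amine-coupled (about 4000 RU) to a GLC chip on a ProteOn XPR36. SIRP analytes were flowed in PBS pH 7.4 with 0.01% Tween-20 at 25° C. Interspot and buffer-blank responses were subtracted from the data, which were then fitted to a 1:1 Langmuir model. Dissociation rate constants (koff) were derived from this fitting.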

[12] = target: T8, NOD mouse SIRP-α D1 domain; assay: SPR, captured scFv-Fc
Method in brief: as §4

[13] = target: T5, cynomolgus SIRP-α D1 domain (SEQ ID …); assay: SPR, captured scFv-Fc, 100 nM analyte; LB = very low binding
Experimental: as §1, §2, §3

[14] = target: T7, mouse 129 SIRP-α D1 domain; assay: SPR, captured scFv-Fc
Method in brief: as §4

[15] = target: T9, C57BL/6 mouse SIRP-α D1 domain; assay: SPR, captured scFv-Fc
Method in brief: as §4

[16] = target: T11, mouse 129 SIRP-α D1 domain (mouse (129 strain), UniProt P97797 32-150); assay: SPR
T11 construct: also called m129
T11 chain: T7 chain
Method in brief: as §4

[17] = target: T12, NOD mouse SIRP-α D1 domain (mouse (NOD strain)); assay: SPR
T12 chain: T8 chain
Method in brief: as §4

[18] = target: T13, C57BL/6 mouse SIRP-α D1 domain (mouse (C57BL/6 strain), UniProt P97797 32-148); assay: SPR
T13 sequence: T9 sequence
Method in brief: as §4

[19] = target: T14, high affinity SIRP-α D1 variant CV1-3; assay: SPR, Langmuir fit
T14 chain: T3 chain
Method in brief: as §4

human SIRPγ isoform 1 [20] = target: T15, human SIRPγ isoform 1 (human, UniProt Q9P1W8 29-147); assay: SPR, Langmuir fit
T15 construct: also called SIRPg; sirpg
Method in brief: as §4

[21] = target: T16, human SIRP-α v1 D1 domain (human, UniProt P78324 31-149); assay: SPR, Langmuir fit
T16 construct: also called human v1
Method in brief: as §4

[22] = target: T17, human SIRP-α v2 D1 domain (human); assay: SPR, Langmuir fit
T17 construct: also called human v2
Method in brief: as §4

[23] = target: T18, cynomolgus SIRP-α D1 domain (cyno1) (cynomolgus monkey, UniProt Q5TFQ8 30-148 (human entry), limits assumed); assay: SPR, Langmuir fit
T18 chain: T5 chain
Method in brief: as §4

[24] = target: T19, cynomolgus SIRP-α D1 domain (cyno2) (cynomolgus monkey, UniProt Q5TFQ8 30-148 (human entry), limits assumed); assay: SPR, Langmuir fit
T19 chain: T5 chain with E19D, A27V, T28S, V42A, H51N, Q52L, P62A
Method in brief: as §4

human SIRPβ isoform 1 [25] = target: T20, human SIRPβ isoform 1 (human, UniProt O00241 30-148); assay: SPR, Langmuir fit
T20 construct: also called SIRPb; sirpb1
Method in brief: as §4

B1: S14 scFv-Fc (scFv)
scFv: AVTQPASVSANLGETVKITCSGDSSYYGWYQQKAPGSAPVTLIYDNDKRPSNIPSRFSGSKSGSTATLTITGVQADDEAVYYCGNEDMNYVGIFGAGTTLTVLGQSSRSSGGGGSSGGGGSMAAVTLDESGGGLQTPGGALSLVCKASGFTFNSYNMGWVRQAPGKGLEFVAGIYSAGGDTSTTYGAAVNGRATISRDNGQSTVRLQLNNLRAEDTGIYFCAKAAGGCTAHNCDAYIADSIDAWGHGTEVIVSSSL[letters of human IgG1 Fc with C220S (EU numbers) and a few adjoining residues left out]
[1]
  koff: 5.42e-05 s⁻¹
Human SIRPγ isoform 1 [2]
  koff: 0.000126 s⁻¹
[3]
  koff: 0.00333 s⁻¹
[4]
  koff: 7.64e-05 s⁻¹
[5]
  koff: 0.000649 s⁻¹
[6]
  koff: 0.000452 s⁻¹
[7]
  koff: 0.0373 s⁻¹
[8]
  koff: 0.00498 s⁻¹
[9]
  koff: 0.0181 s⁻¹
Human SIRPβ isoform 1 [10]
  koff: 6.01e-05 s⁻¹

B2: S2 scFv-Fc (scFv)
scFv: AVTQPASVSANPGETVRITCSGDSSSYYSWHQQKSPGSAPVSVIYSNTDRPSDIPSRFSGSASGSTATLTITGVQAEDEAVYFCGAYDSSSDSDIFGAGTTLTVLGQSSRSSGGGGSSGGGGSMAAVTLDESGGGLQTPGGGLSLVCKASGFDFSNFNMAWVRQGPGKGLEYVAEISDTGSTPYYGSAVQGRATISRDNGQSTVRLQLNNLRAEDTGTYFCTRNFGSSVSSIDAWGHGTEVIVSSSL[letters of human IgG1 Fc with C220S (EU numbers) and a few adjoining residues left out]
[11]
  binding result: no binding (tested: 100 nM)
[12]
  binding result: no binding (tested: 100 nM)
[1]
  koff: 0.00252 s⁻¹
[3]
  koff: 0.149 s⁻¹
[6]
  koff: 0.00559 s⁻¹
[7]
  koff: 0.0142 s⁻¹
[9]
  koff: 0.00885 s⁻¹
[13]
  binding result: binds

B3: S123 scFv-Fc (scFv)
scFv: EIVLTQSPGTLSVSPGERVTLTCRASQGIAGKIAWYQQKPGQAPRLLIYDASSRATGIPGRFSGSGSGTEFTLTITSLQSEDFAVYYCQQHYDWSPLTFGGGTKVEIKGQSSRSSGGGGSSGGGGSDVQLVESGGGLVQPGGSLRLSCTASGFTFRNYGMSWVRQAPGEGLEWVSASSGSGSTYYTDSVKGRFTISRDNSKNTLYLQMNSLRAEDTAIYYCAKVTWNNFFDYWGLGTLVTVSSSL[letters of human IgG1 Fc with C220S (EU numbers) and a few adjoining residues left out]
[11]
  binding result: no binding (tested: 100 nM)
[14]
  binding result: no binding (tested: 100 nM)
[12]
  binding result: no binding (tested: 100 nM)
[15]
  binding result: no binding (tested: 100 nM)
[1]
  koff: 0.00155 s⁻¹
Human SIRPγ isoform 1 [2]
  koff: 0.00143 s⁻¹
[3]
  koff: 0.00131 s⁻¹
[5]
  koff: 0.00157 s⁻¹
[6]
  koff: 0.00154 s⁻¹

B4: S130 scFv-Fc (scFv)
scFv: EIVLTQSPGTLSVSPGERATLSCRASQNVRSDLAWYQQKLGQAPRLLIYDANTRATDIPDRFSGSGSGTEFTLTISSLQSEDFAVYYCQHYYDWPPVTFGGGTKVEIKGQSSRSSGGGGSSGGGGSDVQLVESGGGVVRPGESLRLSCAASGFTFSNYAMSWVRQAPGEGLEWVSLITTNGDGAYYADSVKGRFTISRDNSKNTLYLQMNSLRAEDTAIYYCAKDGAAHYYDIFFDYWGLGTPVTVSSSL[letters of human IgG1 Fc with C220S (EU numbers) and a few adjoining residues left out]
[15]
  binding result: no binding (tested: 100 nM)
[3]
  koff: 0.00373 s⁻¹
[13]
  binding result: binds

B5: S118 (scFv)
scFv: ETVLTQSPATLSVSPGERATLSCRASQTVGSKLAWHQQKPGQAPRLLIYDASRRATGIPDRFSGSGSGTDFTLTISSLQTEDSAVYYCQQYYYWPPYRFGGGTKVEIKGQSSRSSGGGGSSGGGGSDVQLVESGGGVVRPGESLRLSCAASGFSFSSYAMNWVRQAPGEGLEWVSRINSGGGGTDYAESVKGRFTISRDNSENTLYLQMNSLRAEDTAVYYCAKQYDWNGFFDYWGLGALVTVSSSL[letters of human IgG1 Fc with C220S (EU numbers) and a few adjoining residues left out]
[16]
  binding result: no binding (tested: Koff > 5 × 10^3 (legend))
[17]
  binding result: no binding (tested: Koff > 5 × 10^3 (legend))
[18]
  binding result: no binding (tested: Koff > 5 × 10^3 (legend))
[19]
  koff: 0.000247 s⁻¹
Human SIRPγ isoform 1 [20]
  koff: 1.13e-05 s⁻¹
[21]
  koff: 9.17e-06 s⁻¹
[22]
  koff: 4.12e-05 s⁻¹
[23]
  koff: 6.97e-05 s⁻¹
[24]
  koff: 8.06e-05 s⁻¹
Human SIRPβ isoform 1 [25]
  koff: 1.31e-05 s⁻¹
